PubChem BioAssay AID488969 (Vanderbilt High Throughput Screening Facility, 2010)
Over roughly 110,000 compounds, “z-score” has its median near -0.1; the highest 2% begin near 2. The list shows a part of the results. Calls of active or inactive are those of the source.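 The calls were made as follows: active = z-score in the third read window above 3 or below -3; inactive = the rest.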

biological target: Metabotropic glutamate receptor 8 (Rattus norvegicus) (UniProt P70579); experiment: mGluR8 Gi/Go-coupled signaling modulation – cell-based, rat, thallium flux, HTS, primary screen (AID 488969); settings: HEK293 rat mGluR8, GIRK (G protein-gated inwardly rectifying potassium channel) thallium flux, FluoZin2; at 10 µM; stronger effect = higher value; submaximal glutamate (EC20) added with thallium
Sequence of UniProt P70579 (P70579 whole entry, looked up): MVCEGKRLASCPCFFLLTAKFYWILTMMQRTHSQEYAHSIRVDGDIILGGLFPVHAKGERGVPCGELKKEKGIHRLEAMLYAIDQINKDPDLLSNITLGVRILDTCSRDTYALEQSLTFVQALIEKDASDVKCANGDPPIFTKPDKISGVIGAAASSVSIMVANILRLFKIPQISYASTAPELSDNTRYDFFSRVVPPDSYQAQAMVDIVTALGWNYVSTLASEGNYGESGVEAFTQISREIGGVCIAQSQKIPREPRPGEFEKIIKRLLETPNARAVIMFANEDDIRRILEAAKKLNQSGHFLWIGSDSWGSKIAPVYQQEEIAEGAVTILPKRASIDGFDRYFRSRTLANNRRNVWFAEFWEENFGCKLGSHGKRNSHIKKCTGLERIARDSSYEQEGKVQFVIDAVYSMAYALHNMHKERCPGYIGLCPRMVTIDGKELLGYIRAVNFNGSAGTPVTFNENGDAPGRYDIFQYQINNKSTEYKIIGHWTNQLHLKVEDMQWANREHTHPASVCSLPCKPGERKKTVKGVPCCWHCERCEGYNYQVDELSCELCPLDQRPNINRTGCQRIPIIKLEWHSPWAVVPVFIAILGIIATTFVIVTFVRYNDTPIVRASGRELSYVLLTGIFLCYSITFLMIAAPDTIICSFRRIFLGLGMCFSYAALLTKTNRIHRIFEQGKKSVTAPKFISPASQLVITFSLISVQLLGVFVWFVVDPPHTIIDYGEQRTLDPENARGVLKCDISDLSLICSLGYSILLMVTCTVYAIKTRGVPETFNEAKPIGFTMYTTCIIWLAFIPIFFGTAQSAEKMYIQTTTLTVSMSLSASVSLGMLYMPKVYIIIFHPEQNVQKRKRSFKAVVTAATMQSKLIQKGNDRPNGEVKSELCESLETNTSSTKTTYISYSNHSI

| Compound | z-score |
| --- | --- |
| NC(=O)c1c(NC(=O)C2CCCO2)sc2c1CCCCC2 (configuration not stated) | 0.0471 |
| Cc1cc(C)cc(N(CC(=O)O)S(=O)(=O)c2c(C)noc2C)c1 | -0.132 |
| COc1ccc(OC)c(NC(=O)c2cccnc2Sc2cc(C)ccc2C)c1 | 0.576 |
| CCc1nnc(NC(=O)C2Cc3ccccc3C(=O)O2)s1 (configuration not stated) | -0.848 |
| CCOC(=O)Nc1ccc2c(c1)N(C(=O)CCN1CCN(CCO)CC1)c1ccccc1S2 | -0.337 |
| CCOc1ccccc1NS(=O)(=O)c1c(C)noc1C | -0.129 |
| COc1cc(C2C=C(C34CC5CC(CC(C5)C3)C4)NC(=S)N2)cc(OC)c1OC (configuration not stated) | -0.00499 |
| Cc1cc(C(=O)OCC(=O)Nc2sc3c(c2C#N)CCC(C)C3)c2ccccc2n1 (configuration not stated) | -0.0713 |
| C=C(C)Cn1c(N2CCC(Cc3ccccc3)CC2)nc2c1c(=O)[nH]c(=O)n2C | 1.68 |
| CCOC(=O)c1cccc(NC(=O)CCc2nc(-c3ccccc3F)no2)c1 | -0.724 |
| Cc1ccccc1C(=O)N/N=C/c1ccccn1 | -0.12 |
| COCCN1Cc2cccc(C(=O)Nc3ccc4c(c3)OCCO4)c2C1=O | -0.553 |
| Cc1cccc(N/C(N)=N/c2nc3c(c(=O)[nH]2)CCCC3)c1 | -0.177 |
| CN(C)S(=O)(=O)c1ccc(NS(=O)(=O)/C=C/c2ccccc2)cc1 | -0.581 |
| Cc1ccc(C)c(NC(=S)NNC(=O)c2csc(C)c2C)c1 | 2.09 |
| O=C1CCCN1c1ccc(S(=O)(=O)Oc2cccc(Cl)c2)cc1[N+](=O)[O-] | -0.169 |
| Cc1ccccc1S(=O)(=O)Cc1ccc(C(=O)NCc2cccnc2)o1 | 0.132 |
| NS(=O)(=O)c1ccc(CCNCc2cc(Br)ccc2OCc2ccccc2)cc1 | -0.122 |
| O=C(Nn1cnc2ccccc2c1=O)C1CCCCC1 | -0.112 |
| Cc1cccc(C)c1OC1(c2ccccc2)OC(=O)c2ccccc21 (configuration not stated) | -0.253 |
| COC(=O)c1c(C)[nH]c(C)c1-c1ccc(C)cc1 | -1.13 |
| COc1cccc(/C=N/n2c(SC)nnc2-c2ccccc2)c1O | -0.751 |
| Cc1cccc(-c2nnc(SCC(=O)Nc3nc4c(s3)CCCC4)n2C)c1 | -1.4 |

| Compound | z-score |
| --- | --- |
| CCCOC(=O)c1ccc(Oc2c(-c3ccc(OCC)cc3O)n[nH]c2C)cc1 | -1.19 |
| Cc1cccc(OCc2nnc(SCC(=O)N3CCc4ccccc43)n2C)c1 | 2.88 |
| Cc1ccc(/C=C/C(=O)c2c(C)cc(C)[nH]c2=O)cc1 | -0.116 |
| COCCn1c(SCC(=O)Nc2ncc(Cl)c(C)c2Cl)nc2ccccc21 | -0.494 |
| CCCCN(c1ccccc1)c1ncnc(N)c1[N+](=O)[O-] | -0.0801 |
| Cc1ccc(-n2nnnc2SCC(=O)Nc2cccc(NC(=O)c3ccco3)c2)cc1C | 1.39 |
| CN1C(=O)c2ccccc2N(C)C1c1cccs1 (configuration not stated) | -1.51 |
| CC1=NNC(=O)C(CC(=O)Nc2ccc(Cl)c(Cl)c2)C1 (configuration not stated) | 0.199 |
| Cc1ccc(/C=C/C(=O)OC(C)C(=O)Nc2ncc(Cl)cc2Cl)o1 (configuration not stated) | -0.163 |
| CC(C)Oc1ccc(C(=O)NCc2cccnc2)cc1 | 0.59 |
| CCOC(=O)C1C(=O)NC(N2CCc3ccccc32)=NC1c1ccccc1 (configuration not stated) | 0.134 |
| O=C(Nc1ccccc1F)C(=Cc1sc(N2CCOCC2)nc1-c1ccccc1)C(=O)Nc1ccccc1F | -0.297 |
| CN(CCO)C1=CC(=O)CC(C)(C)C1 | -0.41 |
| Cc1ccccc1C(=O)NC1CCS(=O)(=O)C1 (configuration not stated) | 0.0176 |
| O=C(c1cccc(S(=O)(=O)NCc2ccccc2)c1)N1CCN(Cc2ccccc2)CC1 | -0.219 |
| CC(Sc1nc2ccccc2s1)C(=O)NCc1ccc2c(c1)OCO2 (configuration not stated) | -0.205 |
| Nc1[nH]n2c(=O)c3c(nc2c1N=Nc1ccc(Cl)cc1)CCCC3 | -1.09 |
| CCOC(=O)CN1Cc2cccc(C(=O)O)c2C1=O | -0.00379 |
| Cc1ccc2c(c1)C1CN(C)CCC1N2C(=O)c1ccccc1NS(=O)(=O)c1cccc(C(F)(F)F)c1 (configuration not stated) | -0.21 |
| CCCCSc1n[nH]c(N)n1 | -0.247 |
| Cc1cc(C(N)=O)c2cc(Br)ccc2n1 | -0.184 |
| CCCCc1nnc(NC(=O)CC(=O)Nc2ccccc2C(=O)O)s1 | -0.431 |
| COC(=O)c1ccc(OC)c(CSc2nnc(COc3ccc(Cl)cc3)o2)c1 | 0.11 |

| Compound | z-score |
| --- | --- |
| CCCCN(CC)C(=O)Cn1c(=O)sc2ccccc21 | -0.255 |
| C[C@H](NC(=O)Nc1ccccc1F)C(=O)O | -0.255 |
| COc1ccccc1NC(=O)CCSCCC(=O)Nc1ccccc1OC | -0.305 |
| CCCCC(=O)OCC(=O)c1ccc(OCC)cc1 | 0.0645 |
| N/C(=N\OC(=O)COc1ccc(Br)cc1)c1ccncc1 | -0.48 |
| O=C(NC1CCCCC1)C(c1ccc2ncccc2c1)N(Cc1ccc(F)cc1)C(=O)c1ccc2c(c1)OCCO2 (configuration not stated) | -0.344 |
| Cc1ccc(O)c(NC(=S)NC(=O)CC(C)C)c1 | -0.0996 |
| c1ccc2cc(-c3cc4ccccn4c3)ccc2c1 | -0.248 |
| O=C(NCCCN1CCOCC1)c1cc(-c2ccc(Br)cc2)on1 | -0.302 |
| CC1(C)CC(=O)C(C=NCC2CCNCC2)=C(O)C1 | 0.384 |
| CCSc1nc2sc3c(c2c(=O)[nH]1)CC(C)(CC)OC3 (configuration not stated) | -0.488 |
| COc1c(F)c(F)c(C(=O)Nc2ccccc2N2CCN(C(=O)C(C)C)CC2)c(F)c1F | -0.545 |
| N#CCCn1cc(C(CC(=O)c2ccccc2)C(=O)O)c2ccccc21 (configuration not stated) | -0.0596 |
| Cn1c(CNC(=O)c2ccc(Cl)c(Cl)c2)nnc1SCC(=O)Nc1sc2c(c1C#N)CCCC2 | -0.526 |
| CC(C)CCn1c(Oc2ccc(Cl)cc2)nc2c1c(=O)n(C)c(=O)n2C | -0.037 |
| CCOc1ccc(-n2c(C)cc(C(=O)NS(=O)(=O)c3ccc(C)cc3)c2C)cc1 | 0.138 |
| CCN(CC)C(=S)Nc1ccc(Cl)c(Cl)c1 | 0.00748 |
| Cc1ccc2c(n1)sc1c(-c3ccccc3)c(C#N)c(N)nc12 | 0.104 |
| Cc1cccc2nc(=S)n(C(=O)c3ccco3)n12 | 0.787 |
| Cc1cc(NC(=O)CSc2nc3c(c(=O)n2-c2ccc(Br)cc2)SCC3)no1 | -0.498 |
| Cc1ccc(-n2[nH]c(C)c(C=Nc3cc(C)ccn3)c2=O)cc1 | active: 10.6 |
| CC[n+]1c(/C=C2\C=C(C)CC(C)C2)sc2ccccc21 (configuration not stated) | -0.105 |
| Cc1cc(NC(=O)CSc2nc3cc(Cl)ccc3s2)no1 | -0.376 |

| Compound | z-score |
| --- | --- |
| O=C(CN(C(=O)CCC(=O)Nc1nccs1)c1ccccc1F)NCC1CCCO1 (configuration not stated) | 0.359 |
| CC(C)(C)c1ccc(C(=O)NNC(=O)c2cccc(Br)c2)cc1 | -0.236 |
| COc1ccc(OC)c(-n2c(O)cnc2Nc2nc(C)cc(C)n2)c1 | 1.34 |
| COc1ccc(C(=O)Nc2nc(C)c(C(=O)N(C)C)s2)cc1OC | 0.0903 |
| CCOC(=O)N1CCN(C(=O)CN(c2ccc(C)cc2)S(=O)(=O)c2c(C)noc2C)CC1 | -0.441 |
| O=C(N1CCOCC1)N1c2ccccc2CC(N2CCOCC2)c2ccccc21 (configuration not stated) | 0.529 |
| COC(=O)c1ccc(Cl)c(NC(=O)CN(c2ccc(OC)c(OC)c2)S(C)(=O)=O)c1 | 2.1 |
| Cc1ccc(C23CC4CC(CC(NC(=O)NCCN(C)C)(C4)C2)C3)cc1 | 0.295 |
| CCOc1ccccc1CNn1nnnc1N | 0.138 |
| O=C(CSc1nc2ccc(Cl)cc2[nH]1)NCCc1ccccc1 | -0.304 |
| Cc1cc(NCCN(C)C)n2nc(-c3cccs3)cc2n1 | 0.328 |
| O=S(=O)(c1ccccc1)c1nc(-c2ccco2)oc1NCCCn1ccnc1 | -0.0983 |
| COCCCN1C(=O)c2ccc(C(=O)O)cc2C1=O | 0.55 |
| CC(=O)NCc1ccc(S(=O)(=O)N/N=C/c2ccc(N(C)C)cc2)cc1 | -0.222 |
| COc1ccc(C(=O)Cc2ccc(F)cc2)c(OC)c1 | -0.203 |
| CCOC(=O)c1cc2sccc2n1CC(=O)Nc1ccc2c(c1)OCCO2 | 0.34 |
| Oc1ccccc1-c1cc(C(F)(F)C(F)F)[nH]n1 | -1.21 |
| CCN(CC)C(=O)C(C)N(C#N)c1nc(SC)nc(N(C)C)n1 (configuration not stated) | -0.129 |
| Cc1ccc(Nc2nc(CSc3nnc(-c4cccnc4)n3-c3ccccc3F)cs2)cc1 | -0.75 |
| COc1cc(OC)c(/C=N/NC(N)=S)cc1Br | -0.0375 |
| CCOP(=O)(OCC)c1nc(-c2cccc3ccccc23)oc1NCCc1ccc(OC)cc1 | -0.306 |
| COc1cccc(NC(=O)C(NC2CCCC2)c2ccccc2)c1 (configuration not stated) | -1.01 |
| CCC(=O)Nc1cccc(NC(=O)c2cc3ccccc3o2)c1 | -0.237 |

| Compound | z-score |
| --- | --- |
| COc1cc(OC)c(S(=O)(=O)Nc2ccc(C)cn2)cc1NC(C)=O | -0.108 |
| CC1CCN(S(=O)(=O)c2ccc(N/N=C(/C#N)C(N)=O)cc2)CC1 | -0.0448 |
| COC(=O)C1=C(C(=O)c2ccccc2)C(c2ccc(O)c(OC)c2)n2nnnc2N1 (configuration not stated) | 0.106 |
| O=C(NCCC1=CCCCC1)NC12CC3CC(CC(C3)C1)C2 | 0.498 |
| CCOc1ccc(N2CC(=O)N(c3ccc(OCC)cc3)CC2=O)cc1 | -0.298 |
| O=C(O)c1ccc(CNCc2ccc(Cl)cc2)cc1 | 1.77 |
| N#Cc1nc(-c2ccco2)oc1NCCc1ccccc1 | -1.03 |
| Cc1ccc2cccc(SCC(=O)NCC#N)c2n1 | -0.021 |
| c1cncc(C2Nc3ccccc3-c3nc4ccccc4n32)c1 (configuration not stated) | -0.101 |
| COc1ccc(-c2cc(-c3cc(OC)ccc3O)[nH]n2)cc1 | -0.827 |
| Cc1ccc(NC(=S)NN(C)c2nc(C)cnc2C)cc1 | -1.53 |
| CC(=O)c1c(C)[nH]c(C(=O)OCC(=O)Nc2cc(S(=O)(=O)N3CCCCC3)ccc2C)c1C | -2.23 |
| COC(=O)NNC(=S)Nc1cc(OC)ccc1OC | 0.0557 |
| CCCCn1c(N)c(N(CC(C)C)C(=O)CN(C)Cc2cccc(OC)c2)c(=O)[nH]c1=O | -0.111 |
| NC(=O)C1CCN(C2=C(Cl)C(=O)c3ccccc3C2=O)CC1 | -0.0578 |
| Cc1ccc(C(C(=O)NCc2ccccc2)N(C(=O)c2csnn2)c2cccc3ccccc23)o1 (configuration not stated) | -0.574 |
| C/C=C/c1ccc(OCCN2C(=O)NC(C)(C)C2=O)c(OC)c1 | -1.35 |
| CCCC1NC(=O)NC(C)=C1C(=O)OCC (configuration not stated) | -0.0813 |
| CCOC(=O)c1oc2ccccc2c1NC(=O)c1cc(OC)cc(OC)c1 | -0.262 |
| CC1(C)CC(=O)C(C=NCCN2CCN(C(=S)Nc3ccccc3)CC2)=C(O)C1 | -0.182 |
